The campaign covered roughly 270,000 compounds. About 5,800 (2.1%) were called active. The shares of active, inactive and inconclusive entries below differ from those in the screen. Calls come from the whole dose curve; as a rule, active = well fitted inhibition curve with a large enough effect; inconclusive = small, poorly fitted or top-dose-only effect; inactive = flat fitted curve, though single readings scatter. Where the call is inconclusive, the potency comes from a doubtful curve fit.
molecular target: Microtubule-associated protein tau (Homo sapiens) (UniProt P10636); assay: qHTS for Inhibitors of Tau Fibril Formation, Thioflavin T Binding; details: recombinant tau K18 P301L (four-repeat tau fragment), heparin-induced fibrillization, ThT fluorescence; series mostly up to 57.4 µM; activity, negative = inhibition: at the top concentration; note: nearly all actives have a fitted effect of over 55% in size
How it was run: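 Aggregation was driven by heparin (20 uM final) acting on recombinant tau […] bearing P301L in 100 mM sodium acetate pH 7; fibrils were detected with Thioflavin T.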
% is set by controls: 0 for no effect and ±100 for the full control effect; potency is the fitted concentration of half-maximal effect; tags give direction and shape of the fitted curve.

Chain of UniProt P10636 (P10636 whole entry, looked up, the tested form may be a part): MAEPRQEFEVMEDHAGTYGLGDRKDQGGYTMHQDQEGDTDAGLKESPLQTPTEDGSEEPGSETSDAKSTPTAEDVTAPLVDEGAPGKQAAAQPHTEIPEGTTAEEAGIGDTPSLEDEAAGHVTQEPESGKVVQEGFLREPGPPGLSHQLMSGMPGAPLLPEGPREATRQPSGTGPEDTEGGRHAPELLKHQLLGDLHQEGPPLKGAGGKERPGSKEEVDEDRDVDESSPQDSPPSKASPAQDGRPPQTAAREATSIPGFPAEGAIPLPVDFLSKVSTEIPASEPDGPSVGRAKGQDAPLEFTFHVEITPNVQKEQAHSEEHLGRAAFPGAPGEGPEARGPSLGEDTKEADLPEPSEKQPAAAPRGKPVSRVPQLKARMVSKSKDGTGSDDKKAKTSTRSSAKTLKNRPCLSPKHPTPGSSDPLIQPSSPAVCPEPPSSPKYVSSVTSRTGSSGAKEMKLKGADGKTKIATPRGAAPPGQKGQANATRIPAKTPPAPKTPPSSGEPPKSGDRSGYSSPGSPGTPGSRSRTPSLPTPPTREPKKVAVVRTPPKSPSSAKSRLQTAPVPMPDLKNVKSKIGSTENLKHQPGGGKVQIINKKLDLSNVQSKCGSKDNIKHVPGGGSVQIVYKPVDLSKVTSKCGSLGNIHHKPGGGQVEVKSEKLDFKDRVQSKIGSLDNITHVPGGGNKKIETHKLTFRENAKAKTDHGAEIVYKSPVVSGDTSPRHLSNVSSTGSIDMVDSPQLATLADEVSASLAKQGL

Row | Structure (SMILES) | Potency | activity, negative = inhibition
1 | CC(=O)Nc1ccc(CN2CCc3c([nH]c4ccccc34)C2c2ccccn2)cc1 (stereo not given) | inconclusive: 25.1 µM [inhibitor, partial curve] | 
2 | COc1cc2c(cc1OC)n(Cc1ccc([N+](=O)[O-])cc1)c(=O)n1nc(-c3ccccc3)nc21 |  | inactive: 2.54%
3 | CCOC(=O)c1cc(C#N)c(N2CCN(c3ccc(OC)cc3)CC2)[nH]c1=O | inconclusive: 14.1 µM [inhibitor, single point] | 
4 | CC1CCN(c2ccccc2NC(=S)NC(=O)C(C)(C)C)CC1 |  | inactive: -3.42%
5 | ClCc1csc(N/N=C/c2cccs2)n1 | active: 17.8 µM | 
6 | C/C(=N\NC(=O)c1ccc(F)cc1)c1ccc(N2CCOCC2)cc1 | inconclusive: 14.1 µM [inhibitor, partial curve] | 
7 | CCOC(=O)c1ccccc1NC(=O)CN(c1ccccc1)S(=O)(=O)N(C)C |  | inactive: -6.33%
8 | CCOc1cc(CNc2ccc(N3CCN(C(C)=O)CC3)cc2)cc(Br)c1OC | inconclusive: 14.1 µM [inhibitor, partial curve] | 
9 | Cn1c(CSc2nnc(SCc3ccccc3)s2)nc2ccccc21 | inconclusive: 25.1 µM [inhibitor, partial curve, poor fit] | 
10 | CC1CCN(c2nc3c(S(=O)(=O)c4ccc(Cl)cc4)nnn3c3ccsc23)CC1 |  | inactive: -9.41%
11 | Cc1ccc(C(=O)Nc2ccc(C(=O)N/N=C/c3c[nH]c4ccccc34)cc2)cc1 | active: 12.6 µM | 
12 | Cc1ccc(/C=N/NC(=O)c2cc3c(ccc4ccccc43)o2)cc1[N+](=O)[O-] | inconclusive: 0.447 µM [inhibitor, full curve] | 
13 | Cn1ccnc1SCC(=O)NC1CCCCC1 |  | inactive: 12.7%
14 | O=C(NNc1nc2cc3c(cc2s1)OCCO3)c1ccccc1 | inconclusive: 7.94 µM [inhibitor, partial curve] | 
15 | CCOC(=O)N1CCN(c2ccc(C(C)=O)cc2F)CC1C (stereo not given) | inconclusive: 20 µM [inhibitor, partial curve] | 
16 | C/C(=N\NC(=O)c1cccc(N/N=C(\C)c2cc(O)ccc2O)c1)c1cc(O)ccc1O | active: 28.2 µM | 
17 | NS(=O)(=O)c1ccc(CCNC(=O)/C=C/c2cccc([N+](=O)[O-])c2)cc1 | inconclusive: 17.8 µM [inhibitor, partial curve, poor fit] | 
18 | COC(=O)c1cc(N2C(=O)C3C(C2=O)C2(C)C=CC3(C)O2)ccc1Cl (stereo not given) | inconclusive: 39.8 µM [activator, single point] | 
19 | CC1Cc2ccccc2N1C(=S)NC(=O)C1(C)CC1(Cl)Cl (stereo not given) |  | inactive: -9.22%
20 | COc1cccc(-n2c(CN3CCN(c4ccccn4)CC3)nc3ccc([N+](=O)[O-])cc3c2=O)c1 | inconclusive: 28.2 µM [inhibitor, single point] | 
21 | COC(=O)C1=C(N)Oc2cc(C)n(Cc3cccnc3)c(=O)c2C1c1ccc(OC)c(OC)c1OC (stereo not given) |  | inactive: -10.2%
22 | Cc1onc(-c2c(F)cccc2Cl)c1C(=O)Nc1c(C)n(C)n(-c2ccccc2)c1=O |  | inactive: -3.81%
23 | O=C(CSc1ncc(S(=O)(=O)c2ccc(Cl)cc2)c(=O)[nH]1)Nc1ccc2c(c1)OCCO2 | inconclusive: 35.5 µM [inhibitor, single point] | 

Row | Structure (SMILES) | Potency | activity, negative = inhibition
24 | Cc1ccc(NC(=O)CCCn2c3ccccc3c(=O)c3cc(C)ccc32)c(Br)c1 |  | inactive: -14.5%
25 | O=C1CS(=O)(=O)C2(C(=O)N(Cc3ccc(F)cc3)c3ccccc32)N1c1cccc(C(F)(F)F)c1 (stereo not given) | inconclusive: 39.8 µM [inhibitor, single point] | 
26 | CCc1ccc(CNc2ccc(O)cc2)cc1 | active: 3.16 µM | 
27 | Cc1cc2c(C)nc(N/N=C/c3ccc(F)cc3)nc2o1 | inconclusive: 12.6 µM [inhibitor, partial curve] | 
28 | COC(=O)/C=C1\S/C(=N\N=C\CC(=O)OC)NC1=O | active: 7.08 µM | 
29 | CN(Cc1ccc(OC(F)F)cc1)C(=O)c1ccc2nccnc2c1 |  | inactive: -13.7%
30 | COC(=O)C(F)(F)Sc1c(C)[nH]c2ccccc12 | inconclusive: 31.6 µM [inhibitor, single point] | 
31 | C=CC[n+]1c(C)csc1Nc1ccc(C(=O)O)cc1 |  | inactive: -5.65%
32 | Cc1cccc(C)c1NC(=S)Nc1ccc(Cl)c(Cl)c1 |  | inactive: 2.59%
33 | Cc1ccc(NC(=O)c2ccc(-n3cccn3)c([N+](=O)[O-])c2)cc1 | inconclusive: 35.5 µM [inhibitor, partial curve] | 
34 | CCCCOc1nnc(-c2ccc(OCC)cc2)c2ccccc12 | inconclusive: 35.5 µM [inhibitor, partial curve] | 
35 | CC(C)(C)C1CCC(=NNC(=O)CN(c2ccccc2)S(=O)(=O)c2ccccc2[N+](=O)[O-])CC1 (stereo not given) | inconclusive: 20 µM [inhibitor, single point] | 
36 | CCOC(=O)N1CCN(C(=O)c2ccc3c(c2)N(Cc2cc(C)ccc2C)C(=O)c2ccccc2S3=O)CC1 (stereo not given) |  | inactive: -6.21%
37 | O=C1[C@H]2[C@H]3[C@H](O)[C@H](O)C/C(=N/OC[C@@H](O)COCc4ccco4)[C@H]3CC[C@@H]2C(=O)N1Cc1ccc2c(c1)OCO2 |  | inactive: -3.65% [at 11.5 µM]
38 | O=[N+]([O-])c1ccc2nc(-c3ccccc3[N+](=O)[O-])[nH]c2c1 |  | inactive: -19.5%
39 | COc1ccc(C(=O)NC(=S)SCC(=O)O)cc1 | inconclusive: 31.6 µM [inhibitor, single point] | 
40 | O=C(O)CCCC(=O)N1CCc2cc(S(=O)(=O)NCc3ccc(F)cc3)ccc21 | inconclusive: 15.8 µM [inhibitor, partial curve] | 
41 | O=C(CSc1nnc(-c2ccc(F)cc2)c2ccccc12)Nc1ccccc1 | inconclusive: 2.82 µM [inhibitor, full curve] | 
42 | Cc1ccc(Cn2cnc3c(oc4ccccc43)c2=O)cc1 |  | inactive: -9.22%
43 | Cc1ccc(C)c(N2CCN(CCCNC(=O)Cn3cccc3C(=O)c3ccccc3C)CC2)c1 | inconclusive: 10 µM [inhibitor, partial curve] | 
44 | Cc1ccc(C(=O)CNc2ccccc2C)cc1 | inconclusive: 28.2 µM [inhibitor, single point] | 
45 | CCOC(=O)C1CCN(S(=O)(=O)C(F)(F)c2nc3ccccc3s2)CC1 | inconclusive: 17.8 µM [inhibitor, partial curve] | 

— PubChem BioAssay AID1460 (National Center for Advancing Translational Sciences (NCATS), 2008)
